The source of these data is the supplement of paper PMC13016719.

Common to all, as to assay: Reference broth microdilution (once per isolate) and two commercial panels; inhibitor fixed at 4 µg/mL.
In general terms: Dilution methods test growth across graded concentrations, often in twofold steps.

Compound in one assay: C[C@@H](O)[C@H]1C(=O)N2C(C(=O)O)=C(SCCNC=N)C[C@H]12 [imipenem]
Conditions: reference broth microdilution.

Compound in the next assay: CC(C)(O/N=C(\C(=O)N[C@@H]1C(=O)N2C(C(=O)[O-])=C(C[n+]3ccccc3)CS[C@H]12)c1csc(N)n1)C(=O)O [ceftazidime] (with: avibactam 4 µg/mL)
Compound in another assay: Cn1c(N)c(NC(=O)NCCN)c[n+]1CC1=C(C(=O)[O-])N2C(=O)[C@@H](NC(=O)/C(=N\OC(C)(C)C(=O)O)c3nsc(N)n3)[C@H]2SC1 [ceftolozane] (with: tazobactam 4 µg/mL)

MIC of multidrug-resistant clinical P. aeruginosa isolates by reference broth microdilution, Sensititre or Phoenix panel; µg/mL of the β-lactam, with the inhibitor fixed at 4 µg/mL where named; higher = less susceptible; each panel covers only a few steps. No active / inactive call per row; the paper applies CLSI M100 breakpoints. The methods often differ by one or more steps on the same isolate. Several isolates can come from one patient. PDC is the chromosomal AmpC β-lactamase of the species; the number names its allele. Isolates are numbered anew. Bounds are passed on as bounds.

Take “Pseudomonas aeruginosa isolate 147 (PDC allele: blaPDC-5)”: the MIC (commonly the lowest concentration that inhibits growth of the organism) in the assay with imipenem is over 8 µg/mL; with ceftazidime (BD Phoenix panel), 1 µg/mL; with ceftazidime (Sensititre panel), 8 µg/mL; with ceftazidime (reference broth microdilution), at most 4 µg/mL; in the assay with ceftolozane (BD Phoenix panel), at most 1 µg/mL; with ceftolozane (Sensititre panel), 4 µg/mL. Besides, the MIC in the assay with ceftolozane (reference broth microdilution) was determined as 4 µg/mL.
Turning to “Pseudomonas aeruginosa isolate 148 (PDC allele: blaPDC-30)”, the MIC with imipenem was at most 1 µg/mL; with ceftazidime (BD Phoenix panel) it was over 8 µg/mL; in the assay with ceftazidime (Sensititre panel), over 16 µg/mL; with ceftazidime (reference broth microdilution), 16 µg/mL; in the assay with ceftolozane (BD Phoenix panel), 2 µg/mL; with ceftolozane (Sensititre panel), 8 µg/mL. The MIC in the assay with ceftolozane (reference broth microdilution) stood at 4 µg/mL.
With “Pseudomonas aeruginosa isolate 149 (PDC allele: blaPDC-5)”, the MIC with imipenem came out at 8 µg/mL; with ceftazidime (BD Phoenix panel), 2 µg/mL; with ceftazidime (reference broth microdilution), 8 µg/mL; with ceftolozane (BD Phoenix panel), 4 µg/mL; with ceftolozane (reference broth microdilution) it was 4 µg/mL.
With “Pseudomonas aeruginosa isolate 150 (PDC allele: blaPDC-24)”, the MIC is 2 µg/mL with imipenem; 8 µg/mL with ceftazidime (BD Phoenix panel); 8 µg/mL with ceftazidime (Sensititre panel); at most 4 µg/mL with ceftazidime (reference broth microdilution); at most 1 µg/mL in the assay with ceftolozane (BD Phoenix panel); at most 1 µg/mL in the assay with ceftolozane (Sensititre panel). Besides, in the assay with ceftolozane (reference broth microdilution), the MIC was at most 1 µg/mL.
As for “Pseudomonas aeruginosa isolate 151 (PDC allele: blaPDC-34)”, the MIC with imipenem is 8 µg/mL; in the assay with ceftazidime (BD Phoenix panel), 2 µg/mL; with ceftazidime (reference broth microdilution), at most 4 µg/mL; with ceftolozane (BD Phoenix panel), 2 µg/mL; with ceftolozane (reference broth microdilution), 2 µg/mL.
“Pseudomonas aeruginosa isolate 153 (PDC allele: blaPDC-24)”: the MIC with imipenem is at most 1 µg/mL; in the assay with ceftazidime (BD Phoenix panel), 4 µg/mL; in the assay with ceftazidime (Sensititre panel) it was 8 µg/mL; with ceftazidime (reference broth microdilution) it was 8 µg/mL; in the assay with ceftolozane (BD Phoenix panel), 4 µg/mL; with ceftolozane (Sensititre panel), 8 µg/mL. The MIC with ceftolozane (reference broth microdilution) was 4 µg/mL.
As to “Pseudomonas aeruginosa isolate 154 (PDC allele: blaPDC-3)”, the MIC was over 8 µg/mL in the assay with imipenem; 8 µg/mL in the assay with ceftazidime (BD Phoenix panel); 8 µg/mL with ceftazidime (reference broth microdilution); at most 1 µg/mL in the assay with ceftolozane (BD Phoenix panel); at most 1 µg/mL in the assay with ceftolozane (reference broth microdilution).
As for “Pseudomonas aeruginosa isolate 155 (PDC allele: blaPDC-3)”, the MIC with imipenem was 2 µg/mL; in the assay with ceftazidime (BD Phoenix panel), over 8 µg/mL; with ceftazidime (Sensititre panel), 8 µg/mL; with ceftazidime (reference broth microdilution), 16 µg/mL; in the assay with ceftolozane (BD Phoenix panel) it was at most 1 µg/mL; with ceftolozane (Sensititre panel), at most 1 µg/mL. Besides, the MIC in the assay with ceftolozane (reference broth microdilution) was at most 1 µg/mL.
Turning to “Pseudomonas aeruginosa isolate 156 (PDC allele: blaPDC-266)”, the MIC in the assay with imipenem was 4 µg/mL; in the assay with ceftazidime (BD Phoenix panel) it was 8 µg/mL; with ceftazidime (Sensititre panel), 8 µg/mL; with ceftazidime (reference broth microdilution), 8 µg/mL; in the assay with ceftolozane (BD Phoenix panel), 4 µg/mL; with ceftolozane (Sensititre panel), 8 µg/mL. Further, the MIC with ceftolozane (reference broth microdilution) is 8 µg/mL.
Regarding “Pseudomonas aeruginosa isolate 157 (PDC allele: blaPDC-1, ftsI change: ftsI_R504C)”, the MIC with imipenem was over 8 µg/mL; with ceftazidime (BD Phoenix panel) it was over 8 µg/mL; with ceftazidime (reference broth microdilution) it was at least 32 µg/mL; with ceftolozane (BD Phoenix panel) it was 2 µg/mL; with ceftolozane (reference broth microdilution) it was 4 µg/mL.
Regarding “Pseudomonas aeruginosa isolate 158 (PDC allele: blaPDC-56)”, the MIC with imipenem is 4 µg/mL; with ceftazidime (BD Phoenix panel), 8 µg/mL; with ceftazidime (reference broth microdilution), 8 µg/mL; with ceftolozane (BD Phoenix panel) it was at most 1 µg/mL; with ceftolozane (reference broth microdilution), at most 1 µg/mL.
As to “Pseudomonas aeruginosa isolate 159 (PDC allele: blaPDC-5)”, the MIC with imipenem is at most 1 µg/mL; in the assay with ceftazidime (BD Phoenix panel), 4 µg/mL; in the assay with ceftazidime (Sensititre panel), 8 µg/mL; with ceftazidime (reference broth microdilution), at most 4 µg/mL; with ceftolozane (BD Phoenix panel), 2 µg/mL; with ceftolozane (Sensititre panel), 4 µg/mL. Further, the MIC with ceftolozane (reference broth microdilution) came out at 4 µg/mL.
“Pseudomonas aeruginosa isolate 160 (PDC allele: blaPDC-1, ftsI change: ftsI_R504C)”: the MIC with imipenem is over 8 µg/mL; in the assay with ceftazidime (BD Phoenix panel) it was over 8 µg/mL; with ceftazidime (reference broth microdilution), at least 32 µg/mL; with ceftolozane (BD Phoenix panel), 2 µg/mL; in the assay with ceftolozane (reference broth microdilution), 4 µg/mL.
In the case of “Pseudomonas aeruginosa isolate 161 (PDC allele: blaPDC-31)”, the MIC in the assay with imipenem is over 8 µg/mL; in the assay with ceftazidime (BD Phoenix panel), 8 µg/mL; with ceftazidime (reference broth microdilution) it was 8 µg/mL; with ceftolozane (BD Phoenix panel) it was at most 1 µg/mL; with ceftolozane (reference broth microdilution) it was at most 1 µg/mL.
As for “Pseudomonas aeruginosa isolate 162 (PDC allele: blaPDC-5)”, the MIC with imipenem is over 8 µg/mL; in the assay with ceftazidime (BD Phoenix panel), 4 µg/mL; in the assay with ceftazidime (Sensititre panel), 8 µg/mL; with ceftazidime (reference broth microdilution), at most 4 µg/mL; in the assay with ceftolozane (BD Phoenix panel), 2 µg/mL; with ceftolozane (Sensititre panel) it was 4 µg/mL. For the same test system, the MIC with ceftolozane (reference broth microdilution) is 4 µg/mL.
As for “Pseudomonas aeruginosa isolate 164 (PDC allele: blaPDC-24)”, the MIC in the assay with imipenem was 8 µg/mL; with ceftazidime (BD Phoenix panel), 4 µg/mL; with ceftazidime (reference broth microdilution) it was 8 µg/mL; with ceftolozane (BD Phoenix panel) it was 4 µg/mL; in the assay with ceftolozane (reference broth microdilution), 8 µg/mL.
For “Pseudomonas aeruginosa isolate 165 (PDC allele: blaPDC-15)”, the MIC in the assay with imipenem was 4 µg/mL; in the assay with ceftazidime (BD Phoenix panel) it was 4 µg/mL; with ceftazidime (reference broth microdilution) it was 8 µg/mL; with ceftolozane (BD Phoenix panel), at most 1 µg/mL; in the assay with ceftolozane (reference broth microdilution), 2 µg/mL.
As for “Pseudomonas aeruginosa isolate 166 (PDC allele: blaPDC-3)”, the MIC is 2 µg/mL in the assay with imipenem; 8 µg/mL in the assay with ceftazidime (BD Phoenix panel); at least 32 µg/mL with ceftazidime (reference broth microdilution); 2 µg/mL with ceftolozane (BD Phoenix panel); 4 µg/mL in the assay with ceftolozane (reference broth microdilution).
As to “Pseudomonas aeruginosa isolate 167 (PDC allele: blaPDC-8)”, the MIC with imipenem is over 8 µg/mL; with ceftazidime (BD Phoenix panel), over 8 µg/mL; with ceftazidime (reference broth microdilution), at least 32 µg/mL; with ceftolozane (BD Phoenix panel), 4 µg/mL; with ceftolozane (reference broth microdilution) it was 8 µg/mL.
Turning to “Pseudomonas aeruginosa isolate 168 (PDC allele: blaPDC-364)”, the MIC with imipenem was 1 µg/mL; with ceftazidime (BD Phoenix panel) it was 8 µg/mL; with ceftazidime (reference broth microdilution), 16 µg/mL; with ceftolozane (BD Phoenix panel), at most 1 µg/mL; with ceftolozane (reference broth microdilution), 2 µg/mL.
For “Pseudomonas aeruginosa isolate 169 (PDC allele: blaPDC-6)”, in that order: 4 µg/mL, 2 µg/mL, 8 µg/mL, at most 1 µg/mL and 4 µg/mL.
“Pseudomonas aeruginosa isolate 170 (PDC allele: blaPDC-34)”: the MIC was 8 µg/mL with imipenem; 1 µg/mL in the assay with ceftazidime (BD Phoenix panel); at most 4 µg/mL with ceftazidime (reference broth microdilution); at most 1 µg/mL with ceftolozane (BD Phoenix panel); 2 µg/mL in the assay with ceftolozane (reference broth microdilution).
Take “Pseudomonas aeruginosa isolate 171 (PDC allele: blaPDC-24)”: the MIC was over 8 µg/mL with imipenem; over 8 µg/mL with ceftazidime (BD Phoenix panel); over 16 µg/mL with ceftazidime (Sensititre panel); at least 32 µg/mL in the assay with ceftazidime (reference broth microdilution); 2 µg/mL in the assay with ceftolozane (BD Phoenix panel); 8 µg/mL with ceftolozane (Sensititre panel). The MIC with ceftolozane (reference broth microdilution) came out at 8 µg/mL.
Turning to “Pseudomonas aeruginosa isolate 172 (PDC allele: blaPDC-5)”, the MIC in the assay with imipenem was 2 µg/mL; with ceftazidime (BD Phoenix panel), over 8 µg/mL; in the assay with ceftazidime (reference broth microdilution), 16 µg/mL; with ceftolozane (BD Phoenix panel), at most 1 µg/mL; in the assay with ceftolozane (reference broth microdilution), at most 1 µg/mL.
